Molecules are shown by their SMILES. This is one part of the list.

Assay [1] deals with HSkMC (human skeletal muscle cells). Nature of the assay: cytotoxicity call (relative viability < 0.9). Particulars: 10 µM.
The subject of assay [2] is HepG2. The experiment in a line: cytotoxicity call (relative viability < 0.9). Particulars: 10 µM.
For assay [3], the system named is S. aureus RN4220. Nature of the assay: growth inhibition call (relative growth <= 0.2). Particulars: 50 µM.

For `C[C@H](CO)N1C[C@H](C)[C@H](CN(C)Cc2ccc(C(F)(F)F)cc2)Oc2ccc(NS(=O)(=O)c3ccc(Cl)cc3)cc2CC1=O`, the cytotoxicity call in assay [1] and in assay [2] was “active” throughout. The growth inhibition call in assay [3] is “inactive”.

As for `NCC[C@H]1CC[C@H](NC(=O)Nc2ccc(F)cc2)[C@@H](CO)O1`, the cytotoxicity call in assay [1] and in assay [2] was “inactive” each time. Besides, in assay [3], the growth inhibition call was “inactive”.

Take `O=C(C[C@H]1CC[C@@H]2[C@H](COC[C@@H](O)CN2C(=O)c2cnccn2)O1)N1CCN(c2ccccc2)CC1`: the cytotoxicity call in assay [1] and in assay [2] was “inactive” each time. In addition, the growth inhibition call in assay [3] is “inactive”.

As for `O=C1c2c(O)cccc2Cc2cccc(O)c21`, the cytotoxicity call in assay [1] and in assay [2] was “inactive” in each case. Moreover, the growth inhibition call in assay [3] is “inactive”.

Regarding `C[C@@H]1CCCCO[C@H](CN(C)C(=O)c2ccccc2)[C@@H](C)CN([C@@H](C)CO)C(=O)c2cc(NS(=O)(=O)c3ccccc3)ccc2O1`, the cytotoxicity call in assay [1] and in assay [2] was “inactive” throughout. Further, the growth inhibition call in assay [3] was “inactive”.

`Cc1o[nH]c(=O)c1CC[C@@H](N)C(=O)O`: the cytotoxicity call in assay [1] and in assay [2] was “inactive” throughout. Besides, in assay [3], the growth inhibition call is “inactive”.

As to `C[C@@H]1CN([C@H](C)CO)S(=O)(=O)c2ccc(Br)cc2O[C@H]1CN(C)C(=O)c1cnccn1`, the cytotoxicity call in assay [1] and in assay [2] was “inactive” each time. In assay [3], the growth inhibition call was “inactive”.

Take `OCc1cnccn1`: the cytotoxicity call in assay [1] and in assay [2] was “inactive” throughout. In addition, in assay [3], the growth inhibition call was “inactive”.

Turning to `COc1ccc(CNC(=O)c2cc3c(c(-c4cccc(-c5ccc(C#N)cc5)c4)n2)[C@H](CCO)N([S@@](=O)C(C)(C)C)C3)cc1`, the cytotoxicity call in assay [1] and in assay [2] was “inactive” each time. For the same compound, the growth inhibition call in assay [3] is “inactive”.

`C[C@H](CO)N1C[C@H](C)[C@H](CN(C)C(=O)c2ccccc2)OCCCC[C@H](C)Oc2ccc(NS(=O)(=O)c3ccc(Cl)cc3)cc2C1=O`: the cytotoxicity call in assay [1] and in assay [2] was “inactive” each time. Also, the growth inhibition call in assay [3] is “inactive”.

In the case of `C=C[C@](C)(CC[C@@]1(C)[C@H](C)C[C@H](O[C@@H]2O[C@@H](C)[C@H](O)[C@@H](O[C@@H]3O[C@H](CO[C@@H]4O[C@@H](C)[C@H](O)[C@@H](O)[C@H]4O)[C@@H](O)[C@H](O)[C@H]3O)[C@H]2O)[C@@]2(C)C(C)=CCC[C@H]12)O[C@@H]1OC[C@H](O)[C@H](O)[C@H]1O[C@@H]1O[C@@H](C)[C@H](O)[C@@H](O)[C@H]1O`, the cytotoxicity call in assay [1] and in assay [2] was “inactive” in each case. In addition, the growth inhibition call in assay [3] was “inactive”.

As for `C=C(C)C1CC=C(C(=O)O)CC1` (stereo unspecified), the cytotoxicity call in assay [1] and in assay [2] was “inactive” in each case. Besides, the growth inhibition call in assay [3] is “inactive”.

Turning to `C[C@@H]1CN([C@H](C)CO)C(=O)c2cccc(NC(=O)Nc3cccc4ccccc34)c2O[C@@H]1CN(C)S(=O)(=O)c1ccccc1`, the cytotoxicity call in assay [1] and in assay [2] was “inactive” throughout. The growth inhibition call in assay [3] is “inactive”.

Take `Cc1ccc(S(=O)(=O)N(C)C[C@H]2Oc3ccc(NS(=O)(=O)c4ccc(F)cc4)cc3C(=O)N([C@H](C)CO)C[C@@H]2C)cc1`: the cytotoxicity call in assay [1] and in assay [2] was “inactive” throughout. In assay [3], the growth inhibition call is “inactive”.

With `C[C@@H]1CN([C@@H](C)CO)C(=O)Cc2cc(NC(=O)Nc3ccc(C(F)(F)F)cc3)ccc2O[C@H]1CN(C)C(=O)Nc1ccccc1`, the cytotoxicity call in assay [1] and in assay [2] was “inactive” throughout. Moreover, in assay [3], the growth inhibition call was “inactive”.

Turning to `Cc1noc(C)c1NC(=O)Nc1cccc2c1O[C@H](CN(C)Cc1ccc(C(F)(F)F)cc1)[C@H](C)CN([C@@H](C)CO)C2=O`, the cytotoxicity call in assay [1] and in assay [2] was “inactive” in each case. Moreover, in assay [3], the growth inhibition call is “inactive”.

For the compound `C[C@H](CO)N1C[C@H](C)[C@@H](CN(C)C(=O)c2ccncc2)Oc2cc(C#C[C@@H](C)O)ccc2S1(=O)=O`, the cytotoxicity call in assay [1] and in assay [2] was “inactive” in each case. Also, the growth inhibition call in assay [3] was “inactive”.

`CCN(CCO)CCCC(C)Nc1ccnc2cc(Cl)ccc12.O=S(=O)(O)O` (stereo unspecified): the cytotoxicity call in assay [1] is “inactive”. In addition, in assay [2], the cytotoxicity call was “active”. Further, in assay [3], the growth inhibition call was “inactive”.

`COc1ccc(NC(=O)N(C)C[C@H]2OCCCC[C@H](C)Oc3ccc(NC(=O)Nc4ccc(C(F)(F)F)cc4)cc3C(=O)N([C@@H](C)CO)C[C@H]2C)cc1`: the cytotoxicity call in assay [1] and in assay [2] was “inactive” throughout. In addition, in assay [3], the growth inhibition call is “inactive”.

As for `C[C@H](CO)N1C[C@H](C)[C@H](CN(C)Cc2ccc3c(c2)OCO3)Oc2cc(C#CCN(C)C)ccc2S1(=O)=O`, the cytotoxicity call in assay [1] and in assay [2] was “inactive” throughout. The growth inhibition call in assay [3] was “inactive”.

Take `C[C@H]1CN([C@@H](C)CO)C(=O)Cc2cc(NC(=O)Cc3ccccc3)ccc2O[C@H]1CN(C)S(=O)(=O)c1ccc(F)cc1`: the cytotoxicity call in assay [1] and in assay [2] was “inactive” each time. Further, the growth inhibition call in assay [3] is “inactive”.

For `C[C@@H](NC(=O)c1ccnn1C)[C@H]1CCCO1`, the cytotoxicity call in assay [1] and in assay [2] was “inactive” each time. In addition, in assay [3], the growth inhibition call was “inactive”.

On to `O=C(O)CCN1CCCCCC1=O`, for which the cytotoxicity call in assay [1] and in assay [2] was “inactive” each time. The growth inhibition call in assay [3] was “inactive”.

Turning to `COCC#Cc1ccc2c(c1)O[C@@H](CN(C)C(=O)Nc1ccccc1F)[C@@H](C)CN([C@H](C)CO)S2(=O)=O`, the cytotoxicity call in assay [1] and in assay [2] was “inactive” each time. The growth inhibition call in assay [3] is “inactive”.

Take `COc1ccc([Si](C)(C)[C@H]2[C@H](CC(=O)N3Cc4ccccc4C[C@H]3CO)O[C@@]3(C(=O)N(Cc4ccc(N5CCOC5=O)cc4)c4ccccc43)[C@@H]2C)cc1`: the cytotoxicity call in assay [1] was “inactive”. Besides, in assay [2], the cytotoxicity call was “active”. The growth inhibition call in assay [3] was “inactive”.

With `Cc1noc(C)c1NC(=O)N[C@@H]1C=C[C@@H](CC(=O)NCCCN(C)C)O[C@@H]1CO`, the cytotoxicity call in assay [1] and in assay [2] was “inactive” throughout. Also, in assay [3], the growth inhibition call is “inactive”.

Consider `CCC(=O)Nc1cnc(OC)nc1OC`, for which the cytotoxicity call in assay [1] and in assay [2] was “inactive” each time. In assay [3], the growth inhibition call was “inactive”.

For the origin of these results see the antibiotic and cytotoxicity screens of Wong et al. (2023).
